Data from paper PMC7819943, “Rice protein-binding microarrays: a tool to detect cis-acting elements near promoter regions in rice”.
The list shows a part of the results.

Each sequence was assayed against T1, OsWOX13 (Oryza sativa, UniProt Q5QMM3 1-267) (assay: protein-binding microarray (RPBM); PBS, 2% BSA, 51.3 ng/ul salmon testes DNA, 50 uM zinc acetate, 200 nM TF, 25 C, 1 h; high values mean tight binding). Conditions: protein: recombinant; tags: N-terminal polyhistidine and DsRed monomer fusion (pET32a); label: CyDye5-dUTP incorporated in the synthesized complementary strand; 3' TTTTT single-stranded linker to array surface; dsDNA, one strand shown.
T1 sequence: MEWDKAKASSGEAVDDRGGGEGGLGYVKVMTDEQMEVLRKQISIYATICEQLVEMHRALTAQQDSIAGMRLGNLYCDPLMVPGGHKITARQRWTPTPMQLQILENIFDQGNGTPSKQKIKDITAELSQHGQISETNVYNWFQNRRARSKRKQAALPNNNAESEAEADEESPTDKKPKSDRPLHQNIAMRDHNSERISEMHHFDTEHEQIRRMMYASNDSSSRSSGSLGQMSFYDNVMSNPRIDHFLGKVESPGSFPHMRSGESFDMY
Method in brief: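 The binding signal is fluorescence intensity per feature, in arbitrary units, read on an Axon 4000B scanner. Polyhistidine- and DsRed-tagged transcription factors (N-terminal fusions) from E. coli BL21-CodonPlus were purified on Ni–NTA and applied at 200 nM for 1 h at 25 °C to a double-stranded, BSA-blocked custom Agilent array in buffer with 50 µM zinc acetate.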

In order of rising binding signal:
1. TTGCAGTAGTATGATCCAATTAAACCAAATTATAATGGCACGGAGTCACCTAGTGCAG  3140 fluorescence intensity (a.u.)
2. ACTATTGGAGTATGGTGCGTGATTGTCCACAATTTATTCACGGAGTCACCTAGTGCAG  3150 fluorescence intensity (a.u.)
3. GGTGGTGTCTATTTACTAATCGTCCCCTCTCCTTCACTCTCGGAGTCACCTAGTGCAG  3190 fluorescence intensity (a.u.)
4. TCTTGATAACAATCAGCGAGGGATCAACAATGAATATAATCGGAGTCACCTAGTGCAG  3320 fluorescence intensity (a.u.)
5. GTAATTAAGGCCTTTCTCAGTAAATTATTGCAATGCTCACCGGAGTCACCTAGTGCAG  3560 fluorescence intensity (a.u.)
6. ATGTGAATAATTTAAGGCAATGCATTTATATGCCGATGGGCGGAGTCACCTAGTGCAG  3630 fluorescence intensity (a.u.)
7. GCTACATTTGCCAATCTTTATCTCCCCACATAAATGACTTCGGAGTCACCTAGTGCAG  3900 fluorescence intensity (a.u.)
8. ATAATTGTAAACCACAAATCTAGAATTCAAAGCCGGTTTCCGGAGTCACCTAGTGCAG  4130 fluorescence intensity (a.u.)
9. ATTAATATTTCTAATATTAATTTGAGATATATCAAGATATCGGAGTCACCTAGTGCAG  4250 fluorescence intensity (a.u.)
10. GATCGGTTAGTCTCGTTAATTTCGTCATCAGCATTATACTCGGAGTCACCTAGTGCAG  4500 fluorescence intensity (a.u.)
11. CCTAGGCAGATAATGTTGATTACGGTAACAGGTTGTGTTACGGAGTCACCTAGTGCAG  4720 fluorescence intensity (a.u.)
12. AAAACAATATAATTTAATATACAAACTTCAAATGTACCATCGGAGTCACCTAGTGCAG  5180 fluorescence intensity (a.u.)
13. ACAAGATAGATTAATATGAAATATAACACTTCATAAATATCGGAGTCACCTAGTGCAG  6010 fluorescence intensity (a.u.)
14. ATGTAAATTTTGTGAACAATGTTATTACCACTTTGTCGGACGGAGTCACCTAGTGCAG  6010 fluorescence intensity (a.u.)
15. TAGATTAGCGAGCAAATTTACACTGTTTTAAATGTTGTATCGGAGTCACCTAGTGCAG  6460 fluorescence intensity (a.u.)
16. TGGGCCGCACGTAATTGAAATCCAATTCTGGCCCAAACTACGGAGTCACCTAGTGCAG  7460 fluorescence intensity (a.u.)
17. TATAGGTCCAATCTAATTTGTATCCCTTGACCGCAATACCCGGAGTCACCTAGTGCAG  7590 fluorescence intensity (a.u.)
18. TCATCTAAACAGATTAGGATCTTATTTGCACTGGTTTTGACGGAGTCACCTAGTGCAG  8020 fluorescence intensity (a.u.)
19. ATAAAATAAAATAATTTATTTGTAAAACTTTTATATATGTCGGAGTCACCTAGTGCAG  8100 fluorescence intensity (a.u.)
20. AAAACAAATTACATAATTCGTCAGTAAACCGCGAGATGAACGGAGTCACCTAGTGCAG  8940 fluorescence intensity (a.u.)
21. TGAAACAATTAACCATCAGAAATTAAACATGCATGCATGACGGAGTCACCTAGTGCAG  9260 fluorescence intensity (a.u.)
22. ATCCAAACATCTTATTGTGATTGGGAATGGTATATGTTTCCGGAGTCACCTAGTGCAG  9830 fluorescence intensity (a.u.)
23. TCTTCCTCTGCGTGGGCCGGGGCGGAGGGAGGGAGGGGAACGGAGTCACCTAGTGCAG  10300 fluorescence intensity (a.u.)
24. ATTATTGTTTATTTTGTTATGATTTATTTTATCATTACGTCGGAGTCACCTAGTGCAG  10700 fluorescence intensity (a.u.)
25. AGGGTTAAATTGTCAAAATTTGTGCGACACAAACACACTCCGGAGTCACCTAGTGCAG  10900 fluorescence intensity (a.u.)
26. GTAGCAAATTTACAAATTTGCAGGGCTAGCTGTTGCGGTGCGGAGTCACCTAGTGCAG  11100 fluorescence intensity (a.u.)
27. ACATTACTAATTGAGAGGAACCGACGAATTGTACCTGAAACGGAGTCACCTAGTGCAG  11100 fluorescence intensity (a.u.)
28. GTGAAATTGTAAATTCATTTGAGGTAAATGTCCATGCACACGGAGTCACCTAGTGCAG  11100 fluorescence intensity (a.u.)
29. GGTGACAGGCAGTCCACATCCTTATCGCTCTTTGCTAGTTCGGAGTCACCTAGTGCAG  11700 fluorescence intensity (a.u.)
30. ATTAATTCGTCAGATAGATAGATATATATACGCGTTCATCCGGAGTCACCTAGTGCAG  13700 fluorescence intensity (a.u.)
31. ATGATTTGTGATATTATTTGAGGTTACAAGCGGATGAATTCGGAGTCACCTAGTGCAG  15400 fluorescence intensity (a.u.)
32. TTGTGGTCAATTTCAATATAATTGAGTTATATATTCGATGCGGAGTCACCTAGTGCAG  15900 fluorescence intensity (a.u.)
33. GATTAATTAGTCTCTCTGATCGCATCGAACTTGTAATAATCGGAGTCACCTAGTGCAG  20000 fluorescence intensity (a.u.)
34. ATTAATCACACACTAATGGATTGCTCCGTTTTCCGTGCAGCGGAGTCACCTAGTGCAG  21800 fluorescence intensity (a.u.)
35. CCTGATATAGACTGCTTTCTGGTTGATCTGTTAGTAGCGGCGGAGTCACCTAGTGCAG  25300 fluorescence intensity (a.u.)
36. ATTAATAGAGGTTGATTTTATATAAAACAAATGATGTGCCCGGAGTCACCTAGTGCAG  25800 fluorescence intensity (a.u.)
37. TGCATTGATAGATAGAGAGATGGAGAGATAGTGGATAGCTCGGAGTCACCTAGTGCAG  28800 fluorescence intensity (a.u.)
38. AAAGAAGGATAGCCGATGATTGACTGGATGGGTTCACAATCGGAGTCACCTAGTGCAG  28800 fluorescence intensity (a.u.)
39. TTCATTAATTTGTAAAATGGCTGAAGGTCCCGTCCACTGCCGGAGTCACCTAGTGCAG  36600 fluorescence intensity (a.u.)
40. AAAATAATTAATACTTAATTAATAATTCTGATCCTAAGTACGGAGTCACCTAGTGCAG  42900 fluorescence intensity (a.u.)
41. ACTGATTGAAAGGCCCTTCAAGTAGCACTTTCAAATTCAGCGGAGTCACCTAGTGCAG  43600 fluorescence intensity (a.u.)
42. CGCTGATTGGGTTGGGTCGGGTTAGCTTTGGTTTCAATGCCGGAGTCACCTAGTGCAG  50800 fluorescence intensity (a.u.)
